The record followed here is the RNAGym collection of RNA variant scans (doi:10.1093/nar/gkz1192).

Sequences and labels used below:
B1: CPEB3 Ribozyme (parent)
chain: UAACAGGGGGCCACAGCAGAAGCGUUCACGUCGCAGCCCCUGUCAGAUUCUGGUGAAUCUGCGAAUUCUGCUGUAUAUCUC

Read counts are not given, so values of variants with three or more changes are uncertain.

Variants of B1 are the subject of this series. The series is described as follows: self-cleavage, relative activity (ratio to wild type); higher = more cleavage; in vitro, sequencing. In a few lines: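 CPEB3 self-cleaving ribozyme mutant libraries were made by rounds of error-prone PCR, barcoded, and transcribed in vitro with T7 RNA polymerase for 5 hours at 37°C. Cleavage occurred during transcription and a 15 min DNase I step before EDTA stop. RNAs were reverse transcribed with template switching and Illumina-sequenced, with DNA sequencing mapping barcodes to variants. Relative activity is the variant's cleaved/total read fraction divided by wild type's (minimum 5 reads), averaged across three batches.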
For UAACAGGGGGCCACAGCAGAGGCGUUCACGACGCAGCCCCUGUCAGAUUCUGGUGAGUCUGCGAAUUCUGCAGUAUAUCUC [A21G U31A A57G U72A], the self-cleavage came out at 0.1.
As for UAACAGGGGGCCACAGCAGAGGCGUUCACGCCGCAGCCCCUGUCAGAUUCCGGUGAAUCUGCGGAUCCUGCUGUAUAUCUC [A21G U31C U51C A64G U67C], the self-cleavage is 0.11.
Take UAACAGGGGGCCACAGCAGAGGCGUUCACGCCGCAGCCCCCGUCAGAUUCUGGUGAAACUGCGAAUUCUGCUGUAUAUCUC [A21G U31C U41C U58A]: the self-cleavage is 0.09.
As to UAACAGGGGGCCACAGCAGAGGCGUUCACGUCGCAGCCCCCGUCAGAUUCUCGUGAAUCUGCGAAUUCUGCUGUAUAUCUC [A21G U41C G52C], the self-cleavage came to 0.28.
In the case of UAACAGGGGGCCACAGCAGAGGCGUGCACGUCGCAGCCCCUGUCAGAUUCUGGUGGAUCUGCGAAUUCUGCUGUAUAACUC [A21G U26G A56G U78A] it was 0.04.
With UAACAGGGGGCCACAGCAGAGGCGUUCACGCCGCAGCCCCUGUCAGAUUCUGGCGAAUCUGCGUAUUCUGCUGUAUAUCUC [A21G U31C U54C A64U], the self-cleavage was determined as 0.11.
Take UAACAGGGGGCCACAGCAGAGGCGUUCACGACACAGUCCCUGUCAGAUUCAGGUGAAUCUGCGAAUUCUGCAGUAUAUCUC [A21G U31A G33A C37U U51A U72A]: the self-cleavage was 0.
With UAACAGGGGGCCACAGCAGAGGCGUUCACGACGCAGCCCCUGUCAGAUUCUGGUGAAUCAGCGAAUUCUGCUGUAUAUCUC [A21G U31A U60A], the self-cleavage was found to be 0.24.
To UAACAGGGGGCCACAGCAGAGGCGUUCACGUCGCAGCCCCCUUCAGAUUCUGGUGAAUCUGCGAAUUCUGCUGUAUAUCUC [A21G U41C G42U] belongs 0.14.
With UAACAGGGGGCCACAGCAGAGGCGUUCACGUCGCAGCCCCGGUCAGAUUCUGGUGAAUCUGCGAAUUCUCCUGUAUAUCUC [A21G U41G G70C], the self-cleavage was found to be 0.09.
In the case of UAACAGGGGGCCACAGCAGAGGCGUUCACGCCGCAGCUCCUGUCAGAUUCUGGUGAAUCUGCGAAUUCUGCUGUAUAUCUC [A21G U31C C38U] it was 0.18; in that of UAACAGGGGGCCACAGCAGAGGCGUUCACGUCGCAGCCCCGGUCAGAUUCUGGUGAAUCUGCGAAUUCUGUUGUAUAUCUC [A21G U41G C71U], 0.5.
To UAACAGGGGGCCACAGCAGAGGCGUUCACGCCGCAGCACCUGACAGAUUCCGGUGAAUCCGCGAAUUCUGCUGUAUAUCUC [A21G U31C C38A U43A U51C U60C] belongs 0.09.
In the case of UAACAGGGGGCCACAGCAGAGGCGUUCACGACGCAGCCCCUGUCAGAUUCAGGUGAAUCUGCGAAUUCCGCUGUAUAUCUC [A21G U31A U51A U69C] it was 0.09; in that of UAACAGGGGGCCACAGCAGAGGCGUUCACGCCGCAGCCCCUGUCGGAUUCUGGUGAAUCUGCGAAUUCUGCUGUAAAUCUC [A21G U31C A45G U76A], 0.21; in that of UAACAGGGGGCCACAGCAGAGGCGUUCACGCCGCAGCCCCUGUCGGAUUCUGGUGAAUCUGCGAAUUCUGCUGUACAUCUC [A21G U31C A45G U76C], 0.4.
Regarding UAACAGGGGGCCACAGCAGAGGCGUUCACGCCGCAGCCCCUGUCAGAUUCUGGCGAAUCUGCGAAUUCUGCUGUAUAUCUC [A21G U31C U54C], the self-cleavage was found to be 0.23.
To UAACAGGGGGCCACAGCAGAGGCGUUCACGGCGCAGCCCCUGUCAGAUUCUGGAGAAUCUGAGAGUUCUGCUGUAUAUCUC [A21G U31G U54A C62A A65G] belongs 0.1.
In the case of UAACAGGGGGCCACAGCAGAGGCGUUCACGACGCAGCCCCUGUCAGAUUCUGGUGGAUCUGCGAAUUCUGCCGUAUACCUC [A21G U31A A56G U72C U78C], the self-cleavage was determined as 0.17.
As for UAACAGGGGGCCACAGCAGAGGCGUUCACGACGCAGCCCCUGUCAGAUUCCGGUGAAUCUGCGAAUUCUGCUGUAAAUCUC [A21G U31A U51C U76A], the self-cleavage amounted to 0.18.
On to UAACAGGGGGCCACAGCAGAGGCGUUCACGUCGCAGCCCCAGUCAGAUUCAGGUGAAUCUGCGAAUCCUGCAGUAUAUCUC [A21G U41A U51A U67C U72A], for which the self-cleavage came to 0.06.
As to UAACAGGGGGCCACAGCAGAGGCGUUCACGCCGCAGCCCCUGCCAGAUUCUGGUGAAUCUGCGAAUUCUGCUGUAUAUCUC [A21G U31C U43C], the self-cleavage came to 0.3.
Consider UAACAGGGGGCCACAGCAGAGGCGUUCACGUCGCAGCCCCACUCAGAUUCUGGUGAAUCUGCGAAUUCUGCUGUAUAUCUC [A21G U41A G42C], for which the self-cleavage was 0.15.
Take UAACAGGGGGCCACAGCAGAGGCGUCCACGUCGCAGCCCCUGUCAGAUUCUGGUGAAUCUGCGAAUUCUGCUGUACGUCUC [A21G U26C U76C A77G]: the self-cleavage turned out to be 0.11.
With UAACAGGGGGCCACAGCAGAGGCGUGCACGUCGCAGCCCCUGUCAGAUUCUAGUGAAUCUGCGAAUUCUGCUGUACAUCUC [A21G U26G G52A U76C], the self-cleavage was 0.02.
Take UAACAGGGGGCCACAGCAGAGGCGUUCACGCCGCAGCCCCUGUCAGAUUCUGGUGAAUCUGCGGAGUCUGCUAUAUAUCUC [A21G U31C A64G U66G G73A]: the self-cleavage came to 0.12.
Consider UAACAGGGGGCCACAGCAGAGGCGUUCACGCCGCUGCCCCUGUCAGAUUCUGGUGAAUCUGCGAAUUCUGCUGUAUAUCAC [A21G U31C A35U U80A], for which the self-cleavage stood at 0.09.
For the variant UAACAGGGGGCCACAGCAGAGGCGUUCACGCCGCAGCCCCUGUCAGAUUUUGGUGGAUCUGCGAAUUCUGCUGUAUAUCUC [A21G U31C C50U A56G], the self-cleavage turned out to be 0.16.
Regarding UAACAGGGGGCCACAGCAGAGGCGUUCACGUCGCAGCCCCAGUCAGAUUCUGGUGAAUCCGCGGAUUCUGCUGUAUAUCUC [A21G U41A U60C A64G], the self-cleavage worked out at 0.27.
As to UAACAGGGGGCCACAGCAGAGGCGUUCACGUCGCAGCCCCUGACAGUUUCUGGAGAGUCUGCGAAUUCUGCUGUAUAUCUC [A21G U43A A47U U54A A57G], the self-cleavage stood at 0.09.
For UAACAGGGGGCCACAGCAGAGGCGUUCACGUCGCAGCCCCCGUCAGACUCUGGUGAAUAUGCGAAUUCCGCUGUAUAUCUC [A21G U41C U48C C59A U69C], the self-cleavage turned out to be 0.08.
In the case of UAACAGGGGGCCACAGCAGAGGCGUUCACGUCGCAGCCCCCGUCGAAUUCUGGUGAAUCUGCGUAUUCUGCUGUAUAUCUC [A21G U41C A45G G46A A64U] it was 0.04; in that of UAACAGGGGGCCACAGCAGAGGCGUUCACGCCGCAGCCCCUGUCCGAUUCUGGUGAAUCAGCGAAUUCUGCUGUAUAUCUC [A21G U31C A45C U60A], 0.24.
Take UAACAGGGGGCCACAGCAGAGGCGUUCACGUCGCAGCCCCCGUCAGAUUCUGGUGAAUCUGCGAAUUCUGCUGCAUAUCAC [A21G U41C U74C U80A]: the self-cleavage was 0.94.
